Assay results published in paper PMC4336329 (PLoS ONE, 2015).
Screen size: about 310,000 compounds; about 2,200 (0.71%) showed an effect of 50% or more. The effect is printed as a negative number. Some of the results follow.

Target: human ether-à-go-go-related gene (hERG) potassium channel (human, UniProt Q12809)
Experiment: primary screen, population patch clamp on CHO cells stably expressing hERG

Sequence of human ether-à-go-go-related gene (hERG) potassium channel (Q12809 whole entry, looked up): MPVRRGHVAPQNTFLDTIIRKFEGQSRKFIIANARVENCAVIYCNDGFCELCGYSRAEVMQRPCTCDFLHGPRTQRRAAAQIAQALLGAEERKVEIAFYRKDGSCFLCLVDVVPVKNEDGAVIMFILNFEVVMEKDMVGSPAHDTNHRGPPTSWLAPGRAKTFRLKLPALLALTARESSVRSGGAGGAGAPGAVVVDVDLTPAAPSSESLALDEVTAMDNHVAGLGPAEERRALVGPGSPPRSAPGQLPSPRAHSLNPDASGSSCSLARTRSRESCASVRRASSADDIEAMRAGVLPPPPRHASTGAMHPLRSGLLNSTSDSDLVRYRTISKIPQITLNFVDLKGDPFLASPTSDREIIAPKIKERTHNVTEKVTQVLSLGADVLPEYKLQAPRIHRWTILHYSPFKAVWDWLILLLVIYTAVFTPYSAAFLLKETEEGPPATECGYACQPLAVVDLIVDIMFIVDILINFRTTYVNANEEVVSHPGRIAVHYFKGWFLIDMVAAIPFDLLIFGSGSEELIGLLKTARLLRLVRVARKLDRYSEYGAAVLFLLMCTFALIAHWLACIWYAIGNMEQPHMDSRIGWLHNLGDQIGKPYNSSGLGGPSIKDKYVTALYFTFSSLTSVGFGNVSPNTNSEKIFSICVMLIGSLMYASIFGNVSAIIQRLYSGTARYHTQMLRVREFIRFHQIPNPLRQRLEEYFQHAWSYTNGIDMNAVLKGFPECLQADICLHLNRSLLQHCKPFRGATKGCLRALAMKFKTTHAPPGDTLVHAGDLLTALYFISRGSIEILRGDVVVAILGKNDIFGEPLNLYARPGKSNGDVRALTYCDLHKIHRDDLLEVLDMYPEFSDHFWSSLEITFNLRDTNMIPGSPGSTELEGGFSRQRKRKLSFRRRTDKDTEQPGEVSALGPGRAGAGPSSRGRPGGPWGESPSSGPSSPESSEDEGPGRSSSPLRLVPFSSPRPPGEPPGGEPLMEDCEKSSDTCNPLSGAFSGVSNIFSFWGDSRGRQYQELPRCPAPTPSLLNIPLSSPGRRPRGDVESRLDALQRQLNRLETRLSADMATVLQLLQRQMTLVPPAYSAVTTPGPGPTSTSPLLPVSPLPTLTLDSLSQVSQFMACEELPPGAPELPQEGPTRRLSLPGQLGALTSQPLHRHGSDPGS

Compound | hERG current change (%, negative = inhibition) at 1uM
Cc1nnc(NC(=O)CSc2ccc3nnc(-c4ccccn4)n3n2)s1 | 12.1%
O=[N+]([O-])c1ccc(N2CCOCC2)cc1O | 7.58%
CC1=C(C)CC(C(=O)c2ccc(C)cc2)C(C(=O)O)C1 (stereo not shown) | 1.94%
C=CCN(c1ccc(C(=O)OC)cc1)S(=O)(=O)c1ccccc1 | -0.566%
CCOC(=O)c1sc(NC(=O)c2sccc2C)cc1C | 9.64%
O=C(Cn1nnc(-c2ccccc2)n1)N/N=C/c1ccco1 | 15.9%
CCNC(=S)N1CCN(S(=O)(=O)c2cccc(C(F)(F)F)c2)CC1 | 10.7%
O=C(COC(=O)c1n[nH]c2ccccc12)c1ccc(F)c(F)c1 | 6.22%
Cc1ccn2c(=O)nc(SCC(=O)NCCc3ccccc3)nc2c1 | -8.94%
CC(C)Nc1nc2cccnc2s1 | 11.4%
COc1ccc(NC(=O)c2c(C(F)(F)F)nn(C)c2SCc2ccccc2Cl)cc1 | 6.71%
COc1ccc(C)cc1NC(=O)c1c(C)nn(Cc2ccccc2)c1Cl | 1.24%
CN(CCc1ccccc1)C1CCCN(C(=O)Cn2cccn2)C1 (stereo not shown) | 8.7%
C=CCNC(=O)c1cc2nc(C3CC3)cc(C(F)F)n2n1 | 5.93%
CCOC(=O)C(=NC(C)CC)NNc1ccc(Br)cc1 (stereo not shown) | 16.9%
CCOC(=O)N1CCN(Cc2c(O)ccc3ccccc23)CC1 | 4.73%
CCCOc1ccc(C2C(C(=O)c3ccco3)=C(O)C(=O)N2CCCn2ccnc2)cc1 (stereo not shown) | -2.65%
O=C(Nc1nnc(COc2ccccc2)s1)c1ccco1 | 9.83%
COc1ccccc1-n1c(=O)c(C#N)c(-c2ccc([N+](=O)[O-])cc2)c2cc(C(=O)c3ccccc3O)cnc21 | 8.44%
COc1ccc(NC(=O)CSc2nnc(Cc3cccn3C)n2CCc2ccccc2)c(OC)c1 | 3.67%
CC(C)(C)CC(=O)Nc1nn[nH]n1 | 13.3%
CC1=C(C#N)CCC(=O)N1Cc1c(F)cccc1Cl | 15.6%
CN(Cc1ccc(F)cc1)C(=O)c1ccc2c(c1)NC(=O)CS2 | -4.06%

Compound | hERG current change (%, negative = inhibition) at 1uM
C(=N\c1c(-c2ccccc2)nc2n1CCS2)/c1ccccc1 | 13.9%
CCc1nnc(NC(=O)c2cc(-c3ccncc3)nc3ccccc23)s1 | 11.1%
S=C(NCc1ccccn1)Nc1ccccc1 | 7.18%
Fc1ccc(-c2nc3c(-c4ccc(F)cc4)cnn3cc2CCN2CCOCC2)cc1 | -3.19%
CCCc1n(CC)c2ccccc2[n+]1CC(O)COC1CCCCC1.[I-] (stereo not shown) | 4.05%
CC(C)C(=O)N(Cc1ccccc1)c1ccccn1 | 7.2%
CC(NC(=O)C1CCN(S(=O)(=O)c2cc([N+](=O)[O-])ccc2Cl)CC1)c1ccccc1 (stereo not shown) | 8.98%
O=C1CS/C(=C/C(=O)c2cccc(Cl)c2)N1 | 12.6%
CC(=O)O.Cc1nc(NCCc2ccc(F)cc2)c(C#N)c(C)c1[N+](=O)[O-] | -41.9%
COCCn1c(=O)[nH]c2cc(C(=O)NC3CCCCCC3)ccc2c1=O | 6.24%
COC(=O)C1=C(c2ccc(-c3ccccc3)c(F)c2)C[C@@H]2CC[C@H]1N2C(=O)NCc1ccco1 | 23.6%
CCc1ccc(C2CC(c3ccccc3C)n3nc(N)nc3N2)cc1 (stereo not shown) | 9.04%
Cc1cc(Cl)ccc1OCC(=O)NCCOc1nc(N2CCCCC2)nc(N2CCOCC2)n1 | -3.98%
CCOc1ccc(C(C(=O)NCC2CCCO2)N(C(=O)c2snc(C(N)=O)c2N)c2ccc3c(c2)OCCO3)cc1 (stereo not shown) | 8.86%
COc1ccc(/C=N/NC(=O)C(C)n2nnc3ccccc32)cc1OC (stereo not shown) | 9.98%
C=CCNC(=S)NNC(=O)c1cccnc1 | 11.7%
COc1cc(C(CCN2CCOCC2)c2c(OC)cc(OC)c3c(C)cc(=O)oc23)cc(OC)c1OC (stereo not shown) | -70.3%
O=C(Nc1ccccc1)N1CCC2(CC1)OCCO2 | 6.31%
Cc1ccc(C(=O)N/N=C/c2cn(Cc3ccccc3)c3ccccc23)cn1 | 13.9%
O=C(CNC1CCCCC1)Nc1ccc([N+](=O)[O-])cc1C(=O)Nc1ccccc1F | 2.97%
C/C(=N\O)c1ccc2c(c1)OCCO2 | 12.6%
O=C(CCSc1ccccc1)Nc1ccccc1C(=O)N1CCCC1 | 2.77%
Cc1c(NC(=O)CSc2ccccc2C(=O)Nc2cccnc2)c(=O)n(-c2ccccc2)n1C | 11.7%

Compound | hERG current change (%, negative = inhibition) at 1uM
Cc1ccc(C(=O)OCC(=O)N(C)C2CCS(=O)(=O)C2)cc1S(=O)(=O)N1CCCCC1 (stereo not shown) | 3.88%
CCc1ccc(CNn2cnnc2SCC(=O)NC(C)(C)C)cc1 | 2.56%
CCC1(C)Cc2ccccc2-c2nc[nH]c(=O)c21 (stereo not shown) | 12.5%
ClCc1nc2ccccc2n1Cc1ccccc1 | 15.7%
COc1ccc(NC(=O)CSc2nc3ccccc3c(=O)n2C)cc1 | 11.1%
O=C(O)/C=C\C(=O)Nc1ccc(F)c(F)c1F | 4.48%
COc1ccc(N2CCN(S(=O)(=O)c3cn(C)c(=O)n(C)c3=O)CC2)cc1 | 7.97%
CCC(C)NC(=O)CC(NS(=O)(=O)c1ccc(C)cc1)c1ccc(OC)cc1 (stereo not shown) | 2.46%
O=C(c1ccc(Cl)cc1)N1N=C(c2ccccn2)CC1(O)C(F)(F)F (stereo not shown) | 9.99%
COC(=O)[C@@H](Cc1c[nH]c2ccccc12)NC(=O)c1ccc2c(c1)OCO2 | 8.37%
S=C(Nc1cccc(Cl)c1)NC1CCCCC1 | 14.8%
Cc1ccc(NC(=O)C(C)SCC(=O)Nc2ccc(F)cc2)cc1S(=O)(=O)N1CCOCC1 (stereo not shown) | 0.559%
C=C[C@]1(C)C=C2CCC3[C@](C)(CCC[C@@]3(C)C(=O)O)C2CC1 (stereo partly shown) | 8.93%
COc1ccc2c(c1)nc(N)n2Cc1ccccc1 | -6.73%
O=C(NNC(=O)C12CC3CC(CC(Cl)(C3)C1)C2)c1csc(N2CCOCC2)n1 | 10.6%
CC(C)C(=O)NC(CC(=O)O)c1ccccc1 (stereo not shown) | 6.34%
Cc1ccc(CNC(=O)CN(c2ccc(C)cc2)S(=O)(=O)c2c(C)n[nH]c2C)cc1 | 4.29%
CCOC(=O)C1CCN(C(=O)c2ccccc2NS(=O)(=O)c2ccccc2)CC1 | 1.08%
COc1cc(NC(=O)CCc2nnc3ccc(N4CCC5(CC4)OCCO5)nn23)cc(OC)c1 | 15.9%
O=C(Cc1cccs1)NNC(=O)c1ccc(F)cc1 | 9.06%
Cc1ccc(CN(C(=O)c2cc(=O)c3cc(C)cc(C)c3o2)C2CCS(=O)(=O)C2)cc1 (stereo not shown) | 10.8%
CCCC(=O)Nc1c(-c2cccs2)c(=O)c2ccccc2n1C | 5.25%
ClCc1ncc(-c2ccc(Cl)cc2)o1 | 18.7%

Compound | hERG current change (%, negative = inhibition) at 1uM
CC(=O)Nc1ccc(NC(=O)CSc2ncc(C(=O)Nc3ccccc3)c(=O)n2C)cc1 | 4.38%
COc1ccc(Cl)cc1C(=O)N1CCN(Cc2ccc3c(c2)OCO3)CC1 | 4.69%
CCOC(=O)CC(=O)CSc1nc2cc(C)ccc2cc1C | 15.7%
COc1ccc(NC(=O)CSc2nnc(Cc3ccccc3)c(=O)n2N)c(OC)c1 | 6.18%
O=C(O)CCC(=O)N1N=C(c2ccco2)CC1c1ccco1 (stereo not shown) | 7.53%
Cc1cc(C)n(CC(=O)NN)n1 | 15%
Oc1ccc(C(=C(Cl)Cl)c2ccc(O)cc2)cc1 | 16.5%
COC(=O)Nc1ccccc1C(=O)N1CCCCC1 | 5.84%
Cc1ccc(-n2nc3c(c2NC(=O)c2ccc4c(c2)OCO4)CSC3)cc1 | 10.8%
CCOC(=O)c1cc(-c2ccc(C#N)cc2)nc2c1c(C)nn2CCC#N | -12.9%
CC(C)CCN1CCN=C1Nc1ccccc1 | 12.1%
CCS(=O)(=O)NCc1cn2c(C)csc2n1 | 0.136%
COc1cccc(NC(=O)CSc2nnc(CNC(=O)c3ccccc3F)o2)c1 | 9.6%
OC(CNCc1ccccc1)(c1ccc(F)cc1)c1ccc(F)cc1 | 0.369%
Cc1ccc(NC(=O)NCCCN2CCCC2=O)c(C)c1 | 9.02%
CC1CCN(Cc2nc(-c3ccccc3)no2)CC1.Cl | 9.88%
CC(C)(C)OC(=O)NCCOC(=O)c1[nH]cnc1C(=O)NCc1ccccc1 | 7.08%
Cn1nccc1C(=O)N1CCC2(CC1)OCCO2 | 11.7%
c1ccc(-c2cn(C[C@H]3CC[C@@H]([C@@H]4CC[C@H](Cn5cc(-c6ccccn6)nn5)O4)O3)nn2)nc1 | 8.63%
Cc1ccc2nc(NC(=O)CSc3nc4c(c(=O)n3C)SC(C)C4)sc2c1 (stereo not shown) | 2.55%
CC(=O)N1CCN(c2ccc(NC(=O)c3ccc([N+](=O)[O-])cc3Cl)cc2)CC1 | 12.7%
COCCCn1c(=O)c2sccc2n2c(CCCC(=O)NCc3cccc(OC)c3)nnc12 | 4.16%
